# Test results from the antibiotic and cytotoxicity screens of Wong et al. (2023).
# The list shows a part of the results.
# What was measured:
# HSkMC = human skeletal muscle cells; assay: cytotoxicity call (relative viability < 0.9); conditions: 10 µM
# HepG2 = assay: cytotoxicity call (relative viability < 0.9); conditions: 10 µM
# S. aureus RN4220 = assay: growth inhibition call (relative growth <= 0.2); conditions: 50 µM
SMILES,cytotoxicity call (HSkMC),cytotoxicity call (HepG2),growth inhibition call (S. aureus RN4220)
C[C@@H]1CN([C@H](C)CO)S(=O)(=O)c2ccc(C#Cc3ccncc3)cc2O[C@@H]1CN(C)C(=O)C1CCC1,inactive,active,inactive
C[C@@H]1CCCCO[C@@H](CN(C)Cc2ccc(C(=O)O)cc2)[C@@H](C)CN([C@@H](C)CO)C(=O)c2cc(NC(=O)NC3CCCCC3)ccc2O1,inactive,inactive,inactive
O=C(O)CCC(=O)c1ccc(-c2ccccc2)cc1,inactive,inactive,inactive
CC(C)NC(=O)N(C)C[C@@H]1Oc2ccc(NC(=O)CCN3CCOCC3)cc2CC(=O)N([C@@H](C)CO)C[C@@H]1C,inactive,inactive,inactive
COc1ccc(CCc2nc3cc(-c4c(C)noc4C)ccc3n2C[C@H](C)N2CCOCC2)cc1Cl,inactive,inactive,inactive
CN1CC(=O)N2CCN(C(=O)c3ccc4n[nH]nc4c3)C[C@@H]2C1=O,inactive,inactive,inactive
COc1ccc(S(=O)(=O)Nc2ccc3c(c2)C(=O)N([C@@H](C)CO)C[C@H](C)[C@@H](CN(C)C(=O)Nc2ccc(C(F)(F)F)cc2)OCCCC[C@H](C)O3)cc1,inactive,active,inactive
O=S(=O)(NCC[C@H]1CC[C@@H](NS(=O)(=O)c2ccccc2Cl)[C@@H](CO)O1)c1ccc(Cl)cc1,inactive,inactive,inactive
COC(=O)[C@@H](Cc1ccc(-n2cc(COc3ccccc3/C=C(C)/C=C/C(=O)NO)nn2)cc1)N1CC(/C=C/C2CC2)=C[C@H]1[C@H](O)Cc1ccccc1,inactive,inactive,inactive
C[C@@H]1CCCCO[C@@H](CN(C)S(=O)(=O)c2ccccc2)[C@@H](C)CN([C@H](C)CO)C(=O)c2cc(NC(=O)CCCCCC(=O)Nc3ccccc3N)ccc2O1,inactive,inactive,inactive
